Screen size: about 350,000 compounds; about 31,000 (8.9%) were called active. Inconclusive means that the source gave no clear call. Such entries were picked first, then a sample of the others. The call rests on the fitted dose curve; in most records, active means well fitted inhibition curve with a large enough effect; inconclusive means small, poorly fitted or top-dose-only effect; inactive means no such curve, though single readings can be large or run the other way. A potency beside an inconclusive call is a rough fit, not a confirmed value.
The molecules below were run against Histone-lysine N-methyltransferase EHMT2 (Homo sapiens) (UniProt Q96KQ7) (assay: qHTS Assay for Inhibitors of Histone Lysine Methyltransferase G9a). Conditions: G9a H3K9 monomethylation, AlphaScreen, 2 h; activity, negative = inhibition: at 59 µM (top of the series) unless noted.
UniProt Q96KQ7, sequence (Q96KQ7 whole entry, looked up): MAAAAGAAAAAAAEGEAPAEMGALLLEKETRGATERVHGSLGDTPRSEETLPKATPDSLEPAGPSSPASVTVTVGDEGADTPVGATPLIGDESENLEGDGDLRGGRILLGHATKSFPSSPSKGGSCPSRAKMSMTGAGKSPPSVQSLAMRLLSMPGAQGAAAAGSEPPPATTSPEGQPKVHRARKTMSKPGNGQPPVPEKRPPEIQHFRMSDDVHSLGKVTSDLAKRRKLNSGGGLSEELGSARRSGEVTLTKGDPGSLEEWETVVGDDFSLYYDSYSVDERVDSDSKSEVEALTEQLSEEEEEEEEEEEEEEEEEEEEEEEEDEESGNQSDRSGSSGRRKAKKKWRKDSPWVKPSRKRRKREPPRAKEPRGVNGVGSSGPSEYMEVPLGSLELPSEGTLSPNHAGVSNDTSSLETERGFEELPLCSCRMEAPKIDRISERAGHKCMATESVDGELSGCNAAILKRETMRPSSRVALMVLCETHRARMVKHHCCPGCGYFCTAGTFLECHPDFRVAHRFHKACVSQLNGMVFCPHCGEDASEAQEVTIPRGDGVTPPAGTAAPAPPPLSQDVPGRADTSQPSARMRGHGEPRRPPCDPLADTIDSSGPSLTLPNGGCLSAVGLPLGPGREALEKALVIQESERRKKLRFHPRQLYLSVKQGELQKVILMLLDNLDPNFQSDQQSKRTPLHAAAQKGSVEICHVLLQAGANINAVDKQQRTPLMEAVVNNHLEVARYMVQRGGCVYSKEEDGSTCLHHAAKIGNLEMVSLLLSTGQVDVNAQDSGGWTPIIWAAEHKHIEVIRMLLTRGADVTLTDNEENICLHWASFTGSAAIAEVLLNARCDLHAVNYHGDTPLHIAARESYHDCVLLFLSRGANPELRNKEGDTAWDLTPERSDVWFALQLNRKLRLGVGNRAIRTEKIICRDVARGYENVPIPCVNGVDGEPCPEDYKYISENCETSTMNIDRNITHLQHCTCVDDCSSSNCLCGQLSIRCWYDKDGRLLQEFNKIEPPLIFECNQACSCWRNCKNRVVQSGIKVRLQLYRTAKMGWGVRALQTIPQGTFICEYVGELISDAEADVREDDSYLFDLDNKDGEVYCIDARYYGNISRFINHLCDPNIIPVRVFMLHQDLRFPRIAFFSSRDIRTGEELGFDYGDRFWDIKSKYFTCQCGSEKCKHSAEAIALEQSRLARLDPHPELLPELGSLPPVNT
Method in brief: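 Step 1: enzyme (final 20 nM) with compound, 15 min RT. Step 2: substrate peptide 500 nM and SAM 20 uM, 2 h RT. Step 3: anti-H3K9me1 antibody and AlphaScreen beads, 10 min, then plate read.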
In the case of C/C(=N\N(c1ccccc1)c1ccccc1)c1ccco1, the Potency is reported as active: 35.5 µM.
With Cc1ccc(C)c(S(=O)(=O)N2CCCC2CNC(=O)C(=O)NC2CC2)c1 (stereo not given) the “activity, negative = inhibition” value was inactive: -2.6% [at 102 µM].
CC(C)=C1C(=O)NN(c2cccc(Cl)c2)C1=O was tested, and the Potency was inconclusive: 28.2 µM [inhibitor, single point].
Cc1ccc(C(=O)NCCCNc2ccccc2[N+](=O)[O-])cc1 was tested, and the Potency was active: 56.2 µM.
With O=C(Nc1nc(=S)ss1)c1ccc(Cl)cc1Cl the Potency was inconclusive: 0.631 µM [inhibitor, partial curve, poor fit].
For O=C(NC(NC(=S)Nc1ccc(Cl)cc1Cl)C(Cl)(Cl)Cl)c1cccc([N+](=O)[O-])c1 (stereo not given), the Potency was inconclusive: 10 µM [inhibitor, partial curve, poor fit].
Cc1nnc(NC(=O)CCS(=O)(=O)c2ccccc2)s1 was tested, and the Potency was inconclusive: 89.1 µM [inhibitor, single point].
With CCC(=O)Nc1cccc(C2=NOC3(C2)C[C@@H](C(N)=O)N(C(=O)COc2ccc(Cl)cc2)C3)c1 (stereo not given in full) the activity, negative = inhibition was inactive: -8.12% [at 12.7 µM].
In the case of CNC(C)C#Cc1ccc2sc3cccc(OC)c3c(=O)c2c1 (stereo not given), the Potency is reported as active: 70.8 µM.
In the case of COC(=O)C1(C)NC(=O)c2ccccc2N1 (stereo not given), the “activity, negative = inhibition” value is reported as inactive: 25%.
Cc1cccc2c1N(CCOc1ccccc1Cl)C(=O)C2=O was tested, and the Potency was inconclusive: 39.8 µM [inhibitor, single point].
For O=C(/C=C/c1ccco1)c1ccc(NC(=O)C23CC4CC(CC(C4)C2)C3)cc1, the Potency was active: 4.47 µM.
In the case of COc1cc(OC)c(NC(=O)CC(=O)Nc2cc(Cl)c(OC)cc2OC)cc1Cl, the activity, negative = inhibition is reported as inactive: -5.95% [at 0.501 µM].
For COc1cccc(-c2cc(C(=O)N/N=C/c3ccco3)c3ccccc3n2)c1, the “activity, negative = inhibition” value was inactive: 45.8% [at 102 µM].
With CCC1(c2ccc(F)cc2)NC(=O)N(CC(=O)Nc2ccccc2C)C1=O (stereo not given) the “activity, negative = inhibition” value was inactive: -6.99% [at 102 µM].
For Cc1ccc(C(=O)NCC(c2ccco2)N2CCc3ccccc3C2)cc1C (stereo not given), the Potency was inconclusive: 50.1 µM [inhibitor, partial curve].
For CCOC(=O)c1sc(NC(=O)CSc2n[nH]c(-c3ccccc3)n2)c(C#N)c1C, the activity, negative = inhibition was inconclusive: -109% [inhibitor] [at 12.7 µM].
With Nn1cnnc1N/N=C/c1ccccc1C(F)(F)F the Potency was inconclusive: 79.4 µM [inhibitor, single point].
C=CCn1c(SCC(C)=O)nc2scc(-c3ccco3)c2c1=O was tested, and the Potency was active: 7.94 µM.
In the case of CC1CCN(CC(=O)Nc2ccc(N3CCCCCC3)cc2)CC1, the Potency is reported as active: 10 µM.
Cc1cc(C)n(CC(=O)NNC(=O)c2ccc(NC(=O)CC#N)cc2)n1 was tested, and the Potency was inconclusive: 8.91 µM [inhibitor, single point].
For COC1(OC)N=C(N)C2(C#N)C(c3ccc4c(c3)OCO4)C12C#N (stereo not given), the Potency was active: 50.1 µM.
With O=C(NCCc1cn2ccsc2n1)c1cccs1 the Potency was inconclusive: 39.8 µM [inhibitor, full curve].
For COc1ccc(S(=O)(=O)N2CCOCC2)c(Cl)c1Cl, the Potency was inconclusive: 1 µM [inhibitor, partial curve, poor fit].
With O=C(Nc1ccc(Cc2nc3ccccc3s2)cc1)c1ccncc1 the Potency was inconclusive: 89.1 µM [inhibitor, single point].
CC(C)Cc1nnc(NC(=O)C2CCCC2)s1 was tested, and the “activity, negative = inhibition” value was inactive: -15.2% [at 102 µM].
With COc1ccc(OC)c(NC(=O)CN2CCc3ccccc3C2)c1 the Potency was inconclusive: 89.1 µM [inhibitor, single point].
In the case of COc1cc(C2C(C(=O)Nc3ccc(C)cc3C)=C(C)Nc3nc4ccccc4n32)cc(OC)c1OC (stereo not given), the Potency is reported as inconclusive: 22.4 µM [inhibitor, partial curve, poor fit].
CNC[C@H](O)[C@H](O)[C@H](O)[C@H](O)CO was tested, and the “activity, negative = inhibition” value was inactive: 18.9% [at 21.5 µM].
In the case of CN(C)S(=O)(=O)c1ccc(C(=O)NC2CC(=O)N(c3ccc4c(c3)OCCO4)C2)cc1 (stereo not given), the Potency is reported as inconclusive: 3.98 µM [inhibitor, single point].
Cc1cccc(N2CCN(Cc3nc(-c4ccccc4Cl)oc3C)CC2)n1 was tested, and the Potency was inconclusive: 31.6 µM [inhibitor, partial curve].
For COc1ccc(-c2nnc(SCC(=O)NCc3cccs3)n2CC(C)C)cc1, the Potency was inconclusive: 35.5 µM [inhibitor, partial curve, poor fit].
Oc1ccc(Cl)cc1/C=C/c1ccc2cccc(O)c2n1 was tested, and the “activity, negative = inhibition” value was inactive: -1.93% [at 102 µM].
With O=c1cc(CSc2nnc(COc3ccccc3Cl)o2)nc2sccn12 the Potency was inconclusive: 79.4 µM [inhibitor, partial curve].
In the case of N#Cc1c(SCC(=O)Nc2ccc(C(F)(F)F)cc2)sc2c(O)cc(=O)[nH]c12, the Potency is reported as inconclusive: 79.4 µM [inhibitor, single point].
CCc1cccc2c(C(=O)COC(=O)/C=C/c3ccccc3OC)c[nH]c12 was tested, and the Potency was inconclusive: 79.4 µM [inhibitor, single point].
For O=C(CC1C(=O)NCCN1Cc1ccc(-c2ccccc2)cc1)NCCCn1ccnc1 (stereo not given), the Potency was inconclusive: 28.2 µM [inhibitor, partial curve, poor fit].
In the case of O=c1[nH]c2c(s1)C(c1ccc(O)cc1)C1C3CCC(C3)C1S2 (stereo not given), the Potency is reported as inconclusive: 10 µM [inhibitor, partial curve, poor fit].
With Cn1cc(C(=O)NCc2ccccc2)c(=O)c2cc(S(=O)(=O)N3CCOCC3)ccc21 the “activity, negative = inhibition” value was inactive: 1.53%.
In the case of CC(=O)c1cccc(NC(=S)Nc2ccn(Cc3cccc4ccccc34)n2)c1, the Potency is reported as inconclusive: 10 µM [inhibitor, partial curve, poor fit].
In the case of O=C(O)c1ccc(/C=C/c2ccc3cccc(O)c3n2)cc1, the Potency is reported as inconclusive: 44.7 µM [inhibitor, partial curve, poor fit].
With CCOc1cc(C(c2c(C)[nH][nH]c2=O)c2c(C)[nH][nH]c2=O)ccc1OCc1ccc([N+](=O)[O-])cc1 the Potency was inconclusive: 50.1 µM [inhibitor, partial curve, poor fit].
With CC1CC(C)(C)NC(=S)S1 (stereo not given) the Potency was active: 8.91 µM.
For CCn1nc(CC(C)C)cc1C(=O)N1CCCC(Nc2ccc(F)cc2)C1 (stereo not given), the activity, negative = inhibition was inactive: 9.31% [at 0.501 µM].
In the case of CCN1C(=O)C2C(C1=O)N1C(c3ccccc3)C3C(=O)N(CC)C(=O)C3N1C2c1ccccc1 (stereo not given), the “activity, negative = inhibition” value is reported as inactive: -2.14%.

Source: PubChem BioAssay AID504332 (National Center for Advancing Translational Sciences (NCATS), 2011)
Further: nearly all actives have a fitted effect of over 75% in size.
On the % scale 0 is the no-effect control and ±100 the full control effect; potency means the concentration at half of the fitted maximal effect; tags describe the fitted curve by direction and shape.
